Results as given in the supplement of paper PMC12582362.
Structures can show the parent of a compound that is named as a salt. The campaign covered roughly 1,500 compounds. About 30 (2%) showed activity.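 Rule for the calls: active = robust z-score below -2; a few such results were not called.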 This is one part of the list.

Test system: optoTopBP1 Flp-In 293 T-REx (HEK293) cells
Assay: light-induced TopBP1 condensate (nuclear foci) count, plate-normalised robust z-score vs non-control wells; higher = more TopBP1 condensates (negative = condensation inhibitor), active = hit call of the paper
Details: 10 µM; incubation time 2 h

SMILES | light-induced TopBP1 condensate (z-score)
CCOC(=O)[C@H](CCc1ccccc1)N[C@@H](C)C(=O)N1Cc2ccccc2C[C@H]1C(=O)O [Quinapril hydrochloride] | inactive: 0.0394
CC(CCc1ccccc1)NCC(O)c1ccc(O)c(C(N)=O)c1 (configuration not stated) [Labetalol hydrochloride] | inactive: -0.988
Fc1ccc(C(c2ccc(F)cc2)N2CCN(C/C=C/c3ccccc3)CC2)cc1 [Flunarizine dihydrochloride] | inactive: -0.547
Cc1ccc(Nc2c(F)cccc2Cl)c(CC(=O)O)c1 [Lumiracoxib] | inactive: 0.38
CC(C)(CO)[C@@H](O)C(=O)NCCCC(=O)O [Hopantenate calcium] | inactive: 0.00401
NC(N)=Nc1nc(CSCCN/C=N/S(=O)(=O)c2ccc(Br)cc2)cs1 [Ebrotidine] | inactive: -0.733
CCCCC(=O)O[C@H]1CC[C@H]2[C@@H]3CCc4cc(O)ccc4[C@H]3CC[C@]12C [Estradiol Valerate] | inactive: 0.522
N=C(N)c1ccc(OCCCCCOc2ccc(C(=N)N)cc2)cc1 [Pentamidine isethionate] | inactive: 0.291
Cn1c(NCCN(CCO)CCCc2ccc([N+](=O)[O-])cc2)cc(=O)n(C)c1=O [Nifekalant] | inactive: -0.0816
OCCOCCN1CCN(C2=Nc3ccccc3Sc3ccccc32)CC1 [Quetiapine hemifumarate] | inactive: 0.443
CCC(=O)O[C@@H](O[P@](=O)(CCCCc1ccccc1)CC(=O)N1C[C@H](C2CCCCC2)C[C@H]1C(=O)O)C(C)C [Fosinopril] | inactive: -0.0752
CC1(C)S[C@@H]2[C@H](NC(=O)[C@H](N)c3ccc(O)cc3)C(=O)N2[C@H]1C(=O)O [Amoxicillin] | inactive: 0.718
Nc1nc(Cl)nc2c1ncn2[C@H]1C[C@H](O)[C@@H](CO)O1 [Cladribine] | inactive: -1.65
CN[C@@H]1[C@H](O[C@H]2[C@H](O[C@H]3[C@H](O)[C@@H](O)[C@H](N=C(N)N)[C@@H](O)[C@@H]3N=C(N)N)O[C@@H](C)[C@]2(O)C=O)O[C@@H](CO)[C@H](O)[C@H]1O [Streptomycin sulfate] | inactive: -0.213
CCCCCCC[N+](CC)(CC)CCCCc1ccc(Cl)cc1 [Clofilium tosylate] | inactive: -1.04
CCOC(=O)C1=C[C@@H](OC(CC)CC)[C@H](NC(C)=O)[C@@H](N)C1 [Oseltamivir phosphate] | inactive: 1.27
CNCCCC1c2ccccc2C=Cc2ccccc21 [Protriptyline hydrochloride] | active: -2.86
C[C@]12CCC(=O)C=C1CC[C@@H]1[C@@H]2[C@@H](O)C[C@@]2(C)[C@H]1CC[C@]2(O)C(=O)CO [Hydrocortisone base] | inactive: 1.03
Oc1ncnc2[nH]ncc12 [Allopurinol] | inactive: -0.323
CC[N+]1(CC)CCC(=C(c2ccccc2)c2ccccc2)C1C (configuration not stated) [Prifinium Bromide] | inactive: 1.11
Cc1onc(-c2ccccc2)c1-c1ccc(S(N)(=O)=O)cc1 [Valdecoxib] | inactive: -1.03

SMILES | light-induced TopBP1 condensate (z-score)
CCCc1cc(=O)[nH]c(=S)[nH]1 [Propylthiouracil] | inactive: 0.311
C[N+]1(CCCCC[N+]2(C)CCCC2)CCCC1 [Pentolinium bitartrate] | inactive: 0.307
C[C@]12CC[C@@H]3c4ccc(O)cc4CC[C@H]3[C@@H]1CC[C@@H]2O [Estradiol-17 beta] | inactive: 1.04
CCCN(CCC)S(=O)(=O)c1ccc(C(=O)O)cc1 [Probenecid] | inactive: 0.0454
CCN(CC)C(=O)c1cccnc1 [Nikethamide] | inactive: -0.0769
COc1ccc2[nH]c([S+]([O-])Cc3ncc(C)c(OC)c3C)nc2n1 (configuration not stated) [Tenatoprazole] | inactive: -0.653
CN(C)CCOC(c1ccccc1)c1ccccc1 [Diphenhydramine hydrochloride] | inactive: 1.14
CC(=O)[C@H]1CC[C@H]2[C@@H]3CCC4=CC(=O)CC[C@]4(C)[C@H]3CC[C@]12C [Progesterone] | inactive: -0.788
NC(Cc1cc(I)c(Oc2cc(I)c(O)c(I)c2)c(I)c1)C(=O)O (configuration not stated) [Thyroxine (L)] | inactive: 0.348
CN(C)CC/C=C1/c2ccccc2Sc2ccc(Cl)cc21 [Chlorprothixene hydrochloride] | inactive: -0.435
N=C(N)NC(=O)Cc1c(Cl)cccc1Cl [Guanfacine hydrochloride] | inactive: 0.494
O=C(O)Cc1ccccc1Oc1ccc(Cl)cc1Cl [Fenclofenac] | inactive: 1.07
Nc1ccn([C@@H]2O[C@H](CO)[C@@H](O)C2(F)F)c(=O)n1 [Gemcitabine] | active: -2.33
CN1C(=O)CC(c2ccccc2)C1=O (configuration not stated) [Phensuximide] | inactive: 0.398
CN(C)CCN(Cc1ccccc1)c1ccccn1 [Tripelennamine hydrochloride] | inactive: -0.381
CC1CNc2c(cccc2S(=O)(=O)N[C@@H](CCCNC(=N)N)C(=O)N2CC[C@@H](C)C[C@@H]2C(=O)O)C1 (some centres not stated) [Argatroban] | inactive: -0.152
CC(=O)O[C@@]12CO[C@@H]1C[C@H](O)[C@@]1(C)C(=O)[C@H](O)C3=C(C)[C@@H](OC(=O)[C@H](O)[C@@H](NC(=O)OC(C)(C)C)c4ccccc4)C[C@@](O)([C@@H](OC(=O)c4ccccc4)[C@H]21)C3(C)C [Docetaxel] | inactive: -1.72
Clc1ccc(CSC(Cn2ccnc2)c2ccc(Cl)cc2Cl)cc1 (configuration not stated) [Sulconazole nitrate] | inactive: -0.2
CCCc1c2oc(C(=O)O)cc(=O)c2cc2c(=O)cc(C(=O)O)n(CC)c12 [Nedocromil sodium] | inactive: -0.37
C#C[C@]1(OC(C)=O)CC[C@H]2[C@@H]3CCC4=CC(=NO)CC[C@@H]4[C@H]3CC[C@@]21CC (mixture of isomers) [Norgestimate] | inactive: 0.108
CC(=O)Oc1ccc(C(=C2CCCCC2)c2ccc(OC(C)=O)cc2)cc1 [Cyclofenil] | inactive: -0.651
